Screen size: about 310,000 compounds; about 14,000 (4.5%) showed an effect of 50% or more. Effects have a minus sign here. This is one part of the list.
What follows are compounds tested against human ether-à-go-go-related gene (hERG) potassium channel (human, UniProt Q12809) (assay: primary screen, population patch clamp on CHO cells stably expressing hERG).
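Further: peak tail current of the secondary pulse compared with the same well before compound.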

Sequence of human ether-à-go-go-related gene (hERG) potassium channel (Q12809 whole entry, looked up): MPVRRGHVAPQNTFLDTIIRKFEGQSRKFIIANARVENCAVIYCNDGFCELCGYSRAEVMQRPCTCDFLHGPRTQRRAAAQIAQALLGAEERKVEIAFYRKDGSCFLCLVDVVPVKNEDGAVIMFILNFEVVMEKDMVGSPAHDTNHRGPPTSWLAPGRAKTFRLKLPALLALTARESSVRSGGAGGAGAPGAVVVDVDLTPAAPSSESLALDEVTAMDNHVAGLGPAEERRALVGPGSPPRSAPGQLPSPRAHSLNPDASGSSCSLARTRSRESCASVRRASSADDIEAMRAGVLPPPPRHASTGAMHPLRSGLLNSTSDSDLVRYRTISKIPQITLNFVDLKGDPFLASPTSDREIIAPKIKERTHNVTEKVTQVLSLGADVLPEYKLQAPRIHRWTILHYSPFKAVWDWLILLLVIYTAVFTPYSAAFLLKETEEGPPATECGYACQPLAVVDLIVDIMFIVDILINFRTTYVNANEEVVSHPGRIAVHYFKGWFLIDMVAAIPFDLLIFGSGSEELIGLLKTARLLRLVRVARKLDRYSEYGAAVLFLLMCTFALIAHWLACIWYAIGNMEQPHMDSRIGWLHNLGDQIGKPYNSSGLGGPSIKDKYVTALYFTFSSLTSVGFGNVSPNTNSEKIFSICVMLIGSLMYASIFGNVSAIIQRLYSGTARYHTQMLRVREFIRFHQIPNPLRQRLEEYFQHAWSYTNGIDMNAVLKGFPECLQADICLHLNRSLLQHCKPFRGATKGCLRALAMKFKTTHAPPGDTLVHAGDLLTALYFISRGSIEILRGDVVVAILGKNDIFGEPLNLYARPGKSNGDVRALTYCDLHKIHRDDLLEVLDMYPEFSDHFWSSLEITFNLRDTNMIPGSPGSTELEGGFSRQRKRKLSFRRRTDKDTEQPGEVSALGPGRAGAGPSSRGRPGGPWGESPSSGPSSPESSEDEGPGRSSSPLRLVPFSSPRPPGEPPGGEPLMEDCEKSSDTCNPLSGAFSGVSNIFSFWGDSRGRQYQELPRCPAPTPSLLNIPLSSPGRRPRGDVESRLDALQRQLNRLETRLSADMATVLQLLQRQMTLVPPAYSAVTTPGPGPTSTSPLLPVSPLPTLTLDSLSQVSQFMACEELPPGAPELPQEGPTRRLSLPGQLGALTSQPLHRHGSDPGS

Compared with `Cn1c(CC(=O)Nc2ccccc2F)nnc1SCC(=O)Nc1nccs1`, `CN(C)S(=O)(=O)c1ccc(C(=O)Nc2ccccc2F)cc1` is lower in “hERG current change (%, negative = inhibition) at 10uM” value: 18.6% for the first, -12.3% for the second.

First: CCn1c(O)c(N=NC(=S)NCC2CCCO2)c2ccccc21 (centres unmarked)
Second: CC(=O)NC(C(=O)N1CCC(c2nc3ccccc3s2)CC1)C(C)C (centres unmarked)
The “hERG current change (%, negative = inhibition) at 10uM” value of the first is higher: 18.5% for the first, 9.84% for the second.

First: COCCN(C(=O)c1cc(Cl)nc2ccccc12)c1c(N)n(Cc2ccccc2)c(=O)[nH]c1=O
Second: O=C(O)c1ccccc1N(Cc1ccccc1)C(=O)CO/N=C/c1ccccc1
The “hERG current change (%, negative = inhibition) at 10uM” value of the first is higher: 15.4% for the first, 2.87% for the second.

Going from `CC(C)(C)c1ccc(C(=O)Nn2cnnc2)cc1` to `CCSc1nnc(NC(=O)c2ccc(C)cc2)s1`, the “hERG current change (%, negative = inhibition) at 10uM” value falls from 19.4% to -0.642%.

First: O=C(CSc1ccc(C(F)(F)F)cc1[N+](=O)[O-])N1CCOCC1
Second: CN(CCOc1ccccc1)C(=O)c1ccc(F)c(S(=O)(=O)N2CCOCC2)c1
The “hERG current change (%, negative = inhibition) at 10uM” value of the first is higher: -6.11% for the first, -10.8% for the second.

First: CCN(CC(=O)Nc1c(F)cccc1F)C(=O)c1cccc(-n2cccc2)c1
Second: CN=C1SC(CC(=O)Nc2ccc(F)cc2F)C(=O)N1/N=C(\C)c1cccc(OCC(=O)O)c1 (centres unmarked)
The “hERG current change (%, negative = inhibition) at 10uM” value of the first is lower: -27.1% for the first, -25.1% for the second.

Going from `O=C(c1ccco1)[C@@H]1[C@@H]2C(=O)N(c3ccccc3)C(=O)[C@@H]2C2c3ccccc3C=CN21` (some centres unmarked) to `COc1ccccc1NNC(=O)C(O)(c1ccccc1OC)c1ccccc1OC`, the “hERG current change (%, negative = inhibition) at 10uM” value rises from 9.72% to 20.2%.

First: CCn1ncc(CN2CCN(Cc3cccc(OC)c3)C(CCO)C2)c1C (centres unmarked)
Second: COc1cc(O)c(C(CCN2CCCC2)c2ccc(N(C)C)cc2)c(OC)c1 (centres unmarked)
The “hERG current change (%, negative = inhibition) at 10uM” value of the first is higher: 7.07% for the first, -10% for the second.

Compared with `CCCCNC(=S)Nc1ccc([N+](=O)[O-])cc1`, `CCCCNC(=O)c1cc(-c2ccc(F)cc2)on1` is lower in “hERG current change (%, negative = inhibition) at 10uM” value: -10.2% for the first, -16.4% for the second.

Compared with `CCC1CCCCN1CCN1C(=O)C2C(C(=O)Nc3ccc(OC)cc3)C3C=CC2(O3)C1C(=O)NC1CCCCC1` (centres unmarked), `COc1ccc(NC(=O)N2CCCC2C(=O)NCc2ccccc2Cl)cc1` (centres unmarked) is lower in “hERG current change (%, negative = inhibition) at 10uM” value: 2.92% for the first, -4.77% for the second.

First: CC1CCC(NC(=O)C2c3ccccc3C(=O)N2Cc2cccs2)CC1 (centres unmarked)
Second: CCOc1ccccc1N(CC(=O)NC1CCCC1)S(=O)(=O)c1ccc(C)cc1
The “hERG current change (%, negative = inhibition) at 10uM” value of the first is lower: -23.6% for the first, -22.5% for the second.

First: Cc1cc(C)nc(N/N=C/c2sccc2C)n1
Second: CCOc1ccc(/C=N/Nc2nc(N3CCCC3)nc(N3CCCC3)n2)cc1OC
The “hERG current change (%, negative = inhibition) at 10uM” value of the first is higher: 7.56% for the first, -12% for the second.

First: COc1ccc(/C=N/NC(=O)C[n+]2ccccc2)c(OC)c1.[Cl-]
Second: COc1ccc(/C=N/Nc2nc3ccccc3[nH]2)c(OC)c1OC
The “hERG current change (%, negative = inhibition) at 10uM” value of the first is higher: 12% for the first, 5.99% for the second.

First: Cc1cccc2c1N(CC(=O)OC(C)C)C(=O)C2=O
Second: CCCCC(=O)Nc1cccc(-c2nn3c(C)nnc3s2)c1
The “hERG current change (%, negative = inhibition) at 10uM” value of the first is higher: 13.2% for the first, -2.41% for the second.

Going from `O=S(=O)(c1ccccc1Cl)N1CCCC1c1nc(-c2cccc(Cl)c2)no1` (centres unmarked) to `O=[N+]([O-])c1ccc(-n2nnnc2-c2ccccc2)c([N+](=O)[O-])c1`, the “hERG current change (%, negative = inhibition) at 10uM” value rises from -9.49% to 6.9%.

Going from `CN(C(=O)COC(=O)Cc1c(Cl)cccc1Cl)C1CCS(=O)(=O)C1` (centres unmarked) to `CC1CCCCC1NC(=O)COC(=O)COc1ccc(Cl)cc1` (centres unmarked), the “hERG current change (%, negative = inhibition) at 10uM” value falls from -0.343% to -9.17%.

Compared with `CC1CN(C(=O)c2ccncc2)CC(C)O1` (centres unmarked), `Cc1ccc(S(=O)(=O)NC(=O)N2CCCC(C)(C)C2)cc1` is lower in “hERG current change (%, negative = inhibition) at 10uM” value: 12% for the first, 8.82% for the second.

Compared with `CC(=O)N1CCN(C(=O)CCc2nc3ccccc3c(=O)[nH]2)CC1`, `COc1ccc(NC(=O)CCN2CCN(C/C=C/c3ccccc3)CC2)cc1` is lower in “hERG current change (%, negative = inhibition) at 10uM” value: 2.7% for the first, -77.3% for the second.

First: CCc1c(O)nc(SC2CC(=O)N(c3ccc(F)c(Cl)c3)C2=O)[nH]c1=O (centres unmarked)
Second: Cc1cc(/C=C2\SC(=O)N(C)C2=O)c(C)n1-c1ccc(S(N)(=O)=O)cc1
The “hERG current change (%, negative = inhibition) at 10uM” value of the first is lower: 1.38% for the first, 13.3% for the second.

Compared with `CCOc1cc(N2CCOCC2)c(OCC)cc1NC(=O)c1ccc(OCc2c(C)noc2C)c(OC)c1`, `CCOc1ccc(NC(=O)CN2CCN(CC(=O)Nc3ccc(C(=O)OC)cc3)CC2)cc1` is lower in “hERG current change (%, negative = inhibition) at 10uM” value: 15.9% for the first, -66.2% for the second.

Compared with `COc1ccc(CNC(=O)/C(C)=C\C(=O)O)cc1`, `COc1ccc(N(CC(=O)NCc2ccc(F)cc2)S(=O)(=O)c2c(C)n[nH]c2C)cc1` is lower in “hERG current change (%, negative = inhibition) at 10uM” value: 22.4% for the first, -26.5% for the second.

First: Cc1cccc(OCC(=O)NCCNC(=O)c2ccccn2)c1
Second: Cc1ccc(C(=O)NCC(=O)Nc2ccccc2C(F)(F)F)cc1
The “hERG current change (%, negative = inhibition) at 10uM” value of the first is higher: 16.8% for the first, 13.1% for the second.

Going from `O=C(Nc1nc2c(Br)cc(Br)cc2c(=O)s1)C1CCC1` to `CC1Cc2cc(S(=O)(=O)NCCC(=O)NCc3ccc(F)cc3)ccc2N1C(=O)C1CC1` (centres unmarked), the “hERG current change (%, negative = inhibition) at 10uM” value falls from 10.8% to -4.19%.

First: O=C(NCc1ccco1)c1ccc(COc2ccc(Cl)cc2)cc1
Second: O/N=C/c1cc(Br)ccc1OCc1cccc(F)c1
The “hERG current change (%, negative = inhibition) at 10uM” value of the first is higher: 0.911% for the first, -0.542% for the second.

Going from `O=C(CN1CC=C(c2ccccc2)CC1)NC(=O)NC1CCCCC1` to `COCC1CCCCN1C(=O)C1CCN(c2nc(-c3ccccc3)nc3c2CCC3)CC1` (centres unmarked), the “hERG current change (%, negative = inhibition) at 10uM” value falls from -10.6% to -29.2%.

First: Cc1ccc(NC(=O)c2nc[nH]c2C(=O)N[C@@H](CCCCNC(=O)OC(C)(C)C)C(=O)OC(C)(C)C)cc1
Second: CC(C)NCCCCOc1ccc(Br)cc1Cl.O=C(O)C(=O)O
The “hERG current change (%, negative = inhibition) at 10uM” value of the first is higher: -2.43% for the first, -64.6% for the second.

Compared with `O=C(CCSc1ccccn1)c1ccccc1`, `Cc1cccc(NC(=O)Nc2ccccc2[N+](=O)[O-])n1` is higher in “hERG current change (%, negative = inhibition) at 10uM” value: 8.82% for the first, 16.7% for the second.

First: COc1cc(/C=N/NC(=O)C2=NNC(=O)C2C)ccc1O (centres unmarked)
Second: CCNC(=S)N(CCN(C)C)Cc1cc2cc3c(cc2[nH]c1=O)OCO3
The “hERG current change (%, negative = inhibition) at 10uM” value of the first is higher: 15.2% for the first, 6.97% for the second.

Source: article PMC4336329 (PLoS ONE, 2015)
